According to the supplement of paper PMC9046079:
Counter-ions that a name gives are not always drawn. ± gives the standard deviation of the averaged measurements. The list shows a part of the results.

Key:
[1] = test system: murine small intestinal organoids (ENR+CD Paneth differentiation); test: cellular ATP (CellTiter-Glo 3D) relative to plate median (log10 fold change); higher = more viable cells; details: 6 d
[2] = test system: murine small intestinal organoids (ENR+CD Paneth differentiation); test: carbachol-stimulated secreted lysozyme activity relative to plate median (log10 fold change); higher = more Paneth cell lysozyme secretion; details: 6 d, carbachol 10 µM
[3] = test system: murine small intestinal organoids (ENR+CD Paneth differentiation); test: basal (non-stimulated) secreted lysozyme activity relative to plate median (log10 fold change); higher = more Paneth cell lysozyme secretion; details: 6 d
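Throughout, for basal (non-stimulated) secreted lysozyme activity relative to plate median: ISC-enriched organoid precursors grown as 2.5D pseudo-monolayer on Matrigel, compound given on day 0 and day 3, plate values LOESS-normalized before median fold change, three murine donors.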
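Throughout, for cellular ATP (CellTiter-Glo 3D) relative to plate median: 2.5D pseudo-monolayer culture of ISC-enriched organoids partly embedded atop Matrigel, compound added on day 0 and again on day 3, per-plate LOESS correction before median fold change.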

SMILES | cellular ATP (log10) ([1]; 0.08 µM) | cellular ATP (log10) ([1]; 0.4 µM) | cellular ATP (log10) ([1]; 2 µM) | cellular ATP (log10) ([1]; 10 µM) | carbachol-stimulated secreted lysozyme activity (log10) ([2]; 0.08 µM) | carbachol-stimulated secreted lysozyme activity (log10) ([2]; 0.4 µM) | carbachol-stimulated secreted lysozyme activity (log10) ([2]; 2 µM) | carbachol-stimulated secreted lysozyme activity (log10) ([2]; 10 µM) | basal (log10) ([3]; 0.08 µM) | basal (log10) ([3]; 0.4 µM) | basal (log10) ([3]; 2 µM) | basal (log10) ([3]; 10 µM)
C[C@@H](O[C@H]1OCCN(Cc2n[nH]c(=O)[nH]2)[C@H]1c1ccc(F)cc1)c1cc(C(F)(F)F)cc(C(F)(F)F)c1 [Aprepitant] | 0.313 ± 0.17 | 0.403 ± 0.18 | 0.145 ± 0.15 | 0.0505 ± 0.22 | 0.191 ± 0.17 | 0.1 ± 0.024 | -0.0386 ± 0.0042 | -0.166 ± 0.032 | 0.0965 ± 0.1 | 0.0611 ± 0.033 | 0.00498 ± 0.029 | -0.0895 ± 0.038
CC(C)NCC(O)COc1cccc2ccccc12 (stereo not drawn) [Propranolol HCl] | 0.126 ± 0.077 | 0.0178 ± 0.15 | 0.101 ± 0.23 | 0.115 ± 0.096 | 0.0951 ± 0.13 | -0.00107 ± 0.027 | 0.064 ± 0.1 | 0.0195 ± 0.14 | 0.0282 ± 0.079 | 0.102 ± 0.14 | 0.0794 ± 0.076 | 0.0482 ± 0.11
CC(C)CC(=O)Nc1n[nH]c2c1CN(C(=O)C1CCN(C)CC1)C2(C)C | 0.113 ± 0.089 | 0.132 ± 0.09 | -0.144 ± 0.17 | -0.856 ± 0.35 | 0.0405 ± 0.28 | 0.0815 ± 0.012 | -0.0558 ± 0.053 | -0.332 ± 0.14 | 0.0316 ± 0.11 | 0.00978 ± 0.025 | -0.136 ± 0.043 | -0.267 ± 0.075
COc1cc(Nc2ncc(F)c(Nc3ccc4c(n3)N(COP(=O)(O)O)C(=O)C(C)(C)O4)n2)cc(OC)c1OC [Fostamatinib (R788)] | 0.232 ± 0.23 | -0.0516 ± 0.22 | -0.231 ± 0.46 | -0.881 ± 0.48 | 0.307 ± 0.063 | 0.253 ± 0.16 | 0.0551 ± 0.069 | -0.422 ± 0.038 | 0.119 ± 0.12 | -0.0249 ± 0.064 | -0.0988 ± 0.057 | -0.234 ± 0.093
Cn1c(=O)cc(N2CCC[C@@H](N)C2)n(Cc2cc(F)ccc2C#N)c1=O [Trelagliptin] | 0.216 ± 0.25 | -0.046 ± 0.17 | -0.104 ± 0.48 | 0.0929 ± 0.23 | -0.0145 ± 0.0039 | -0.0111 ± 0.15 | -0.0793 ± 0.06 | -0.247 ± 0.18 | 0.00962 ± 0.038 | -0.00336 ± 0.079 | -0.0581 ± 0.048 | -0.0799 ± 0.15
CCN1CCN(c2ccc(Nc3cc(N(C)C(=O)Nc4c(Cl)c(OC)cc(OC)c4Cl)ncn3)cc2)CC1 | -0.0537 ± 0.34 | 0.0263 ± 0.28 | -0.185 ± 0.19 | -1.5 ± 0.71 | 0.0322 ± 0.085 | 0.0441 ± 0.3 | -0.066 ± 0.084 | -0.403 ± 0.046 | -0.00193 ± 0.12 | -0.0598 ± 0.091 | -0.0517 ± 0.046 | -0.269 ± 0.11
Nc1cccc(-c2cc3c(Oc4cccc(O)c4)ncnc3[nH]2)c1 | 0.00284 ± 0.76 | 0.236 ± 0.3 | 0.0768 ± 0.047 | -0.967 ± 0.72 | -0.0993 ± 0.33 | 0.133 ± 0.21 | 0.0577 ± 0.044 | -0.191 ± 0.24 | -0.0178 ± 0.19 | 0.0933 ± 0.081 | 0.0408 ± 0.099 | -0.161 ± 0.16
CCOC(=O)C1=C(C)NC(C)=C(C(=O)OC)C1c1cccc(Cl)c1Cl (stereo not drawn) [Felodipine] | -0.0783 ± 0.14 | -0.319 ± 0.39 | 0.0106 ± 0.024 | 0.0325 ± 0.087 | -0.0559 ± 0.024 | -0.0928 ± 0.01 | -0.0328 ± 0.041 | -0.101 ± 0.13 | 0.00114 ± 0.091 | -0.0327 ± 0.05 | 0.002 ± 0.063 | -0.056 ± 0.1
Cc1c(Cl)cccc1Nc1ccccc1C(=O)O [Tolfenamic Acid] | 0.225 ± 0.19 | -0.0128 ± 0.075 | -0.0825 ± 0.19 | -0.106 ± 0.24 | 0.0822 ± 0.094 | 0.0874 ± 0.063 | 0.131 ± 0.13 | -0.0672 ± 0.087 | 0.0256 ± 0.042 | 0.0463 ± 0.051 | -0.0409 ± 0.018 | -0.0267 ± 0.088
C=CC(=O)Nc1cccc(Nc2nc(Nc3ccc(Oc4ccnc(C(=O)NC)c4)cc3)ncc2F)c1 | 0.259 ± 0.26 | 0.177 ± 0.13 | -0.109 ± 0.37 | -0.0811 ± 0.033 | 0.00656 ± 0.14 | -0.0266 ± 0.042 | 0.0193 ± 0.11 | -0.148 ± 0.11 | 0.0753 ± 0.13 | -0.00772 ± 0.063 | 0.158 ± 0.058 | -0.0431 ± 0.078
COc1ccc(CC(C)NCC(O)c2ccc(O)c(NC=O)c2)cc1 (stereo not drawn) [Formoterol Hemifumarate] | 0.294 ± 0.2 | 0.265 ± 0.13 | 0.242 ± 0.36 | 0.253 ± 0.2 | 0.208 ± 0.011 | 0.261 ± 0.12 | 0.0703 ± 0.027 | -0.026 ± 0.13 | 0.145 ± 0.034 | 0.0733 ± 0.074 | 0.0482 ± 0.037 | 0.0131 ± 0.12
COc1cc2c(cc1-c1c(C)noc1C)ncc1[nH]c(=O)n([C@H](C)c3ccccn3)c12 | -0.0162 ± 0.2 | -0.174 ± 0.24 | -0.502 ± 0.074 | -0.935 ± 0.24 | -0.323 ± 0.045 | -0.41013 ± 0.00031 | -0.502 ± 0.018 | -0.501 ± 0.039 | -0.116 ± 0.077 | -0.248 ± 0.09 | -0.299 ± 0.12 | -0.284 ± 0.15
O=C(O)c1ccc(Nc2ncc3c(n2)-c2ccc(Cl)cc2C(c2c(F)cccc2F)=NC3)cc1 | 0.0264 ± 0.16 | 0.0139 ± 0.24 | -0.465 ± 0.32 | -0.498 ± 0.17 | 0.0924 ± 0.057 | 0.292 ± 0.025 | -0.119 ± 0.12 | -0.269 ± 0.026 | 0.0659 ± 0.038 | 0.00756 ± 0.063 | -0.0997 ± 0.081 | -0.112 ± 0.069
CCc1cccc2c3c([nH]c12)C(CC)(CC(=O)O)OCC3 (stereo not drawn) [Etodolac] | -0.0613 ± 0.028 | 0.0492 ± 0.065 | 0.00824 ± 0.12 | 0.0228 ± 0.051 | 0.0691 ± 0.03 | 0.177 ± 0.19 | 0.123 ± 0.043 | -0.0224 ± 0.12 | 0.046 ± 0.081 | 0.0361 ± 0.093 | 0.0519 ± 0.1 | -0.00893 ± 0.054
C[C@]12CC[C@@H]3c4ccc(O)cc4C[C@@H](CCCCCCCCC[S+]([O-])CCCC(F)(F)C(F)(F)F)[C@H]3[C@@H]1CC[C@@H]2O (stereo partly drawn) [Fulvestrant] | 0.119 ± 0.21 | -0.0627 ± 0.59 | 0.142 ± 0.19 | -0.204 ± 0.094 | 0.00457 ± 0.16 | -0.0845 ± 0.26 | -0.0537 ± 0.076 | -0.227 ± 0.023 | 0.0574 ± 0.07 | -0.0496 ± 0.12 | 0.00035 ± 0.068 | -0.0431 ± 0.044
O=C(Nc1ccccc1)c1cc([N+](=O)[O-])ccc1Cl | 0.115 ± 0.22 | 0.0412 ± 0.19 | 0.212 ± 0.11 | 0.133 ± 0.18 | -0.00908 ± 0.042 | 0.0449 ± 0.0058 | 0.0529 ± 0.053 | 0.004 ± 0.022 | 0.035 ± 0.069 | 0.0979 ± 0.077 | 0.046 ± 0.078 | 0.0304 ± 0.039
O=C(C[S+]([O-])Cc1ccco1)NC/C=C\COc1cc(CN2CCCCC2)ccn1 (stereo not drawn) [Lafutidine] | 0.152 ± 0.17 | 0.145 ± 0.12 | 0.138 ± 0.052 | -0.0984 ± 0.23 | 0.011 ± 0.022 | 0.0357 ± 0.069 | 0.0987 ± 0.068 | -0.0162 ± 0.011 | 0.0427 ± 0.092 | 0.0068 ± 0.036 | 0.0367 ± 0.029 | 0.0755 ± 0.07
COc1cc(OC2CCN(C)CC2)ccc1Nc1ncc2c(n1)n(C1CCCC1)c(=O)n2C | -0.13 ± 0.28 | -0.262 ± 0.37 | -0.369 ± 0.33 | -1.17 ± 0.44 | 0.00858 ± 0.093 | -0.0215 ± 0.067 | -0.0756 ± 0.14 | -0.494 ± 0.039 | 0.0734 ± 0.0027 | -0.0376 ± 0.055 | -0.079 ± 0.084 | -0.281 ± 0.081
C=CCNC1=C2C[C@@H](C)C[C@H](OC)[C@H](O)[C@@H](C)/C=C(\C)[C@H](OC(N)=O)[C@@H](OC)/C=C\C=C(/C)C(=O)NC(=CC1=O)C2=O [17-AAG (Tanespimycin)] | -1.01 ± 0.85 | -1.26 ± 0.96 | -1.46 ± 0.62 | -1.45 ± 0.83 | -0.324 ± 0.15 | -0.43 ± 0.045 | -0.433 ± 0.024 | -0.355 ± 0.088 | -0.193 ± 0.11 | -0.205 ± 0.12 | -0.142 ± 0.076 | -0.187 ± 0.1
CC(C)C[C@H](NC(=O)CNC(=O)c1cc(Cl)ccc1Cl)B(O)O | -1.65 ± 0.56 | -1.1 ± 0.88 | -1.23 ± 0.55 | -1.76 ± 0.71 | -0.4771 ± 0.003 | -0.44 ± 0.03 | -0.424 ± 0.037 | -0.448 ± 0.0082 | -0.271 ± 0.096 | -0.284 ± 0.097 | -0.249 ± 0.081 | -0.298 ± 0.075
O=C(Nc1ccncc1)c1cc([N+](=O)[O-])ccc1Cl | -0.377 ± 0.93 | -0.0742 ± 0.21 | 0.0406 ± 0.065 | -0.365 ± 0.082 | -0.251 ± 0.23 | -0.0157 ± 0.044 | 0.0304 ± 0.015 | -0.183 ± 0.38 | -0.0876 ± 0.2 | 0.00508 ± 0.021 | 0.0421 ± 0.042 | -0.0715 ± 0.21
O=C1C(=O)N(Cc2ccc(Cl)c(Cl)c2)c2ccccc21 [Apoptosis Activator 2] | 0.304 ± 0.33 | 0.262 ± 0.27 | 0.0816 ± 0.037 | -0.158 ± 0.32 | 0.0424 ± 0.06 | 0.00854 ± 0.014 | -0.0181 ± 0.015 | -0.313 ± 0.24 | 0.149 ± 0.064 | 0.0333 ± 0.084 | -0.00566 ± 0.044 | -0.199 ± 0.16
CO[C@H]1C[C@@H]2CC[C@@H](C)[C@@](O)(O2)C(=O)C(=O)N2CCCC[C@H]2C(=O)O[C@H]([C@H](C)C[C@@H]2CC[C@@H](OCCO)[C@H](OC)C2)CC(=O)[C@H](C)/C=C(\C)[C@@H](O)[C@@H](OC)C(=O)[C@H](C)C[C@H](C)/C=C/C=C/C=C/1C [Everolimus (RAD001)] | 0.392 ± 0.27 | 0.127 ± 0.42 | 0.132 ± 0.029 | -0.111 ± 0.39 | -0.0597 ± 0.063 | -0.0422 ± 0.1 | -0.0636 ± 0.031 | -0.0963 ± 0.023 | 0.0678 ± 0.11 | 0.11 ± 0.066 | -0.00343 ± 0.018 | -0.0241 ± 0.027
CN(C)CCCCC(=O)Nc1ccc(NC(=S)NC(=O)c2ccc(C(C)(C)C)cc2)cc1 [Tenovin-6] | -0.553 ± 1.3 | -0.168 ± 0.34 | -0.497 ± 0.48 | -0.705 ± 0.69 | -0.174 ± 0.35 | 0.0475 ± 0.0029 | -0.21 ± 0.32 | -0.259 ± 0.42 | -0.0487 ± 0.17 | 0.0467 ± 0.016 | -0.119 ± 0.19 | -0.112 ± 0.19
